Results from the supplement of paper PMC7125110.
± gives the standard error. Variants at the background level are over-represented here.

B1: glmS ribozyme (parent)
chain: AUAAAAGCGCCAGAACUACAGAAAUGUAGUUGACGAGGAGGAGGUUUAUCGAAUUUUCGGCGGAUGCCUCCAAA

Legend:
Details in all cases: with glucosamine-6-phosphate
glucosamine-6-phosphate [1] = variants of: B1; test: self-cleavage kobs at 40 uM GlcN6P; higher = faster cleavage; RNA array
Method in brief: (§1)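 A hybridised Cy3 probe tracked barcoded ribozyme variants, transcribed in situ by E. coli RNA polymerase on sequenced MiSeq chips, at 37 °C. The variants received 40 μM to 10 mM glucosamine-6-phosphate in HEPES/KCl/Mg(OAc)2 buffer. kobs came from decay fits and kcat and KM from weighted Michaelis–Menten fits.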

glucosamine-6-phosphate [2] = variants of: B1; test: self-cleavage kobs at 10000 uM GlcN6P; higher = faster cleavage; RNA array
Method in brief: as §1

glucosamine-6-phosphate [3] = variants of: B1; test: self-cleavage kobs at 640 uM GlcN6P; higher = faster cleavage; RNA array
Method in brief: as §1

glucosamine-6-phosphate [4] = variants of: B1; test: self-cleavage kobs at 2500 uM GlcN6P; higher = faster cleavage; RNA array
Method in brief: as §1

glucosamine-6-phosphate [5] = variants of: B1; test: self-cleavage kobs at 160 uM GlcN6P; higher = faster cleavage; RNA array
Method in brief: as §1

| Variant | self-cleavage kobs at 40 uM GlcN6P (glucosamine-6-phosphate [1]) | self-cleavage kobs at 10000 uM GlcN6P (glucosamine-6-phosphate [2]) | self-cleavage kobs at 640 uM GlcN6P (glucosamine-6-phosphate [3]) | self-cleavage kobs at 2500 uM GlcN6P (glucosamine-6-phosphate [4]) | self-cleavage kobs at 160 uM GlcN6P (glucosamine-6-phosphate [5]) |
| --- | --- | --- | --- | --- | --- |
| G7A G41C C58A | < 1e-05 s⁻¹ | < 1e-05 s⁻¹ |  |  |  |
| G7C U30G G35U G37U U57C C71G | < 1e-05 s⁻¹ | < 1e-05 s⁻¹ |  |  |  |
| A6U U57C G59A | < 1e-05 s⁻¹ |  |  |  |  |
| G7U U47A C50U U57C G63A | < 1e-05 s⁻¹ | < 1e-05 s⁻¹ |  |  |  |
| G7A A48U U49G | < 1e-05 s⁻¹ | < 1e-05 s⁻¹ |  |  |  |
| G7A G62A | < 1e-05 s⁻¹ | < 1e-05 s⁻¹ | < 1e-05 s⁻¹ | < 1e-05 s⁻¹ |  |
| C8A A33C | < 1e-05 s⁻¹ | < 1e-05 s⁻¹ | < 1e-05 s⁻¹ | < 1e-05 s⁻¹ | < 1e-05 s⁻¹ |
| G7C G44A | < 1e-05 s⁻¹ | < 1e-05 s⁻¹ | < 1e-05 s⁻¹ | < 1e-05 s⁻¹ | < 1e-05 s⁻¹ |
| G7C G44U | < 1e-05 s⁻¹ | < 1e-05 s⁻¹ |  |  |  |
| G7C C50A G60C | < 1e-05 s⁻¹ |  |  | < 1e-05 s⁻¹ |  |
| G7C U49A C61A | < 1e-05 s⁻¹ |  | < 1e-05 s⁻¹ |  |  |
| G7A U45A A53G U56A | < 1e-05 s⁻¹ |  |  |  |  |
| G7A G38C G40U U47A | < 1e-05 s⁻¹ |  |  |  |  |
| G7C G63U | < 1e-05 s⁻¹ | < 1e-05 s⁻¹ | < 1e-05 s⁻¹ | < 1e-05 s⁻¹ | < 1e-05 s⁻¹ |
| G7U G13C C67U | < 1e-05 s⁻¹ | < 1e-05 s⁻¹ |  |  |  |
| A6U A33C | < 1e-05 s⁻¹ |  | < 1e-05 s⁻¹ | < 1e-05 s⁻¹ | < 1e-05 s⁻¹ |
| G7C G37U C67G | < 1e-05 s⁻¹ |  |  |  |  |
| G7U G32A U47C G51A G60A | < 1e-05 s⁻¹ | < 1e-05 s⁻¹ |  |  |  |
| G7U U31A G32U G41U A48U | < 1e-05 s⁻¹ |  |  |  |  |
| C8A A15U | < 1e-05 s⁻¹ | < 1e-05 s⁻¹ | < 1e-05 s⁻¹ | < 1e-05 s⁻¹ | < 1e-05 s⁻¹ |
| A6U G38A | < 1e-05 s⁻¹ |  |  |  |  |
| G7C G32U | < 1e-05 s⁻¹ | < 1e-05 s⁻¹ | < 1e-05 s⁻¹ | < 1e-05 s⁻¹ |  |
| G7C G32C | < 1e-05 s⁻¹ |  | < 1e-05 s⁻¹ |  | < 1e-05 s⁻¹ |
| A6U C10G A42G C50G C67A C70A | 0.000143 ± 4.1e-05 s⁻¹ | 9.95e-05 ± 2.4e-05 s⁻¹ |  |  |  |

| Variant | self-cleavage kobs at 40 uM GlcN6P (glucosamine-6-phosphate [1]) | self-cleavage kobs at 10000 uM GlcN6P (glucosamine-6-phosphate [2]) | self-cleavage kobs at 640 uM GlcN6P (glucosamine-6-phosphate [3]) | self-cleavage kobs at 2500 uM GlcN6P (glucosamine-6-phosphate [4]) | self-cleavage kobs at 160 uM GlcN6P (glucosamine-6-phosphate [5]) |
| --- | --- | --- | --- | --- | --- |
| G7C G51C | < 1e-05 s⁻¹ | < 1e-05 s⁻¹ | < 1e-05 s⁻¹ |  |  |
| G7A U30G G41C C58G G66A | < 1e-05 s⁻¹ |  |  |  |  |
| G7A G44U | < 1e-05 s⁻¹ | < 1e-05 s⁻¹ | < 1e-05 s⁻¹ | < 1e-05 s⁻¹ | < 1e-05 s⁻¹ |
| G7U C11A | < 1e-05 s⁻¹ | < 1e-05 s⁻¹ | < 1e-05 s⁻¹ |  | < 1e-05 s⁻¹ |
| G7A G9U A48G | < 1e-05 s⁻¹ |  |  |  |  |
| G7U G29A A48G | < 1e-05 s⁻¹ | < 1e-05 s⁻¹ |  |  |  |
| G7C A15U G35U G60A | < 1e-05 s⁻¹ |  | < 1e-05 s⁻¹ | < 1e-05 s⁻¹ |  |
| G7U U31G | < 1e-05 s⁻¹ | < 1e-05 s⁻¹ | < 1e-05 s⁻¹ | < 1e-05 s⁻¹ | < 1e-05 s⁻¹ |
| C8A A12U A39G | < 1e-05 s⁻¹ | < 1e-05 s⁻¹ | < 1e-05 s⁻¹ |  |  |
| G7U U47C | < 1e-05 s⁻¹ | < 1e-05 s⁻¹ | < 1e-05 s⁻¹ |  | < 1e-05 s⁻¹ |
| G7U U47G | < 1e-05 s⁻¹ | < 1e-05 s⁻¹ | < 1e-05 s⁻¹ |  | < 1e-05 s⁻¹ |
| G7U A64G | < 1e-05 s⁻¹ | < 1e-05 s⁻¹ |  | < 1e-05 s⁻¹ |  |
| G7C C8G G29U G63U C70U | < 1e-05 s⁻¹ | < 1e-05 s⁻¹ |  |  |  |
| G7U G38A A48G G60C | < 1e-05 s⁻¹ |  |  |  |  |
| G7U C10G A12U U65G C68G | 7.58e-05 ± 2.2e-05 s⁻¹ | 5.57e-05 ± 1.5e-05 s⁻¹ |  |  |  |
| G7U U45G | < 1e-05 s⁻¹ | < 1e-05 s⁻¹ | < 1e-05 s⁻¹ | < 1e-05 s⁻¹ | < 1e-05 s⁻¹ |
| A6U A48C | < 1e-05 s⁻¹ | < 1e-05 s⁻¹ | < 1e-05 s⁻¹ | < 1e-05 s⁻¹ | < 1e-05 s⁻¹ |
| G7U A39C G59C | < 1e-05 s⁻¹ | < 1e-05 s⁻¹ |  |  |  |
| G7U A14U U46A U56G G63U | < 1e-05 s⁻¹ | < 1e-05 s⁻¹ |  |  |  |
| A6U U30C U56C | < 1e-05 s⁻¹ |  |  |  |  |
| G7C A12C G26U U30A A36U A64U U65C | < 1e-05 s⁻¹ | < 1e-05 s⁻¹ |  |  |  |
| G7A G13U U69G C71A | 0.00031 ± 7.3e-05 s⁻¹ | 0.000516 ± 0.00016 s⁻¹ |  |  |  |
| G7U A14U U45G C70A | < 1e-05 s⁻¹ | < 1e-05 s⁻¹ |  |  |  |
| G7C G35U U54G | < 1e-05 s⁻¹ | < 1e-05 s⁻¹ |  | < 1e-05 s⁻¹ |  |
